Measured values from publication PMC5101480 (Scientific Reports, 2016).
These are yes or no findings as the source states them, for the method shown. Some results given as binding are weak or reduced against the parent protein; the word gives no strength. Values belong to the molecule of their own block, whether it stands above or below them.

The chains behind the UniProt entries cited, without tags or fusion partners. Residues count along the entry.
Rpn13 C-terminal domain, residues 260-407 (Q16186, residues 260-407): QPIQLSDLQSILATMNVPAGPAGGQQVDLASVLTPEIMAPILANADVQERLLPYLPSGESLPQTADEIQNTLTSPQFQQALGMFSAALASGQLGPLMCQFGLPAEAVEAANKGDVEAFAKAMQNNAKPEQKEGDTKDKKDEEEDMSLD
Rpn13 construct devoid of the C-terminal pentapeptide, residues 260-402 (Q16186, residues 260-402): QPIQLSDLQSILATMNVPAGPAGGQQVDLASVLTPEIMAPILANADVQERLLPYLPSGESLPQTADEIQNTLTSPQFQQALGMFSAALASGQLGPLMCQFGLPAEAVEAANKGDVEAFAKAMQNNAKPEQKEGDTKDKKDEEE

Tests used:
[1] = molecular target: Rpn13 C-terminal domain, residues 260-407 (human) (UniProt Q16186); assay: NMR titration; 1H-15N HSQC chemical shift perturbation; unlabelled SGTA_TPR (wild type or K160E/R164E) titrated into 15N-labelled Rpn13_(260-407); 25 °C, 10 mM potassium phosphate pH 6.0, 100 mM NaCl, 250 μM TCEP; both purified
[2] = molecular target: TPR domain of SGTA (small, glutamine-rich, tetratricopeptide repeat protein alpha), residues 84-211 (human) (UniProt O43765); assay: NMR titration; 1H-15N HSQC chemical shift perturbation; unlabelled Rpn13 construct or DMSLD peptide titrated into 15N-labelled SGTA_TPR (wild type or K160E/R164E); 25 °C, 10 mM potassium phosphate pH 6.0, 100 mM NaCl, 250 μM TCEP; both purified
[3] = molecular target: K160E/R164E double mutant SGTA_TPR (residues 84-211) (human) (UniProt O43765); assay: condition: up to a 6-fold molar excess of Rpn13_(260-407); NMR titration; 1H-15N HSQC chemical shift perturbation; unlabelled Rpn13 construct or DMSLD peptide titrated into 15N-labelled SGTA_TPR (wild type or K160E/R164E); 25 °C, 10 mM potassium phosphate pH 6.0, 100 mM NaCl, 250 μM TCEP; both purified
[4] = molecular target: TPR domain of SGTA (small, glutamine-rich, tetratricopeptide repeat protein alpha), residues 84-211 (human) (UniProt O43765); assay: SEC; the two proteins mixed in a 1:1 molar ratio (for the K160E/R164E mutant also with Rpn13_(260-407) at a 3-fold molar excess) and compared with each run individually under identical conditions; both purified
[5] = molecular target: K160E/R164E double mutant SGTA_TPR (residues 84-211) (human) (UniProt O43765); assay: as above
[6] = molecular target: TPR domain of SGTA (small, glutamine-rich, tetratricopeptide repeat protein alpha), residues 84-211 (human) (UniProt O43765); assay: condition: up to a 6-fold molar excess of Rpn13_(260-402); NMR titration; 1H-15N HSQC chemical shift perturbation; unlabelled Rpn13 construct or DMSLD peptide titrated into 15N-labelled SGTA_TPR (wild type or K160E/R164E); 25 °C, 10 mM potassium phosphate pH 6.0, 100 mM NaCl, 250 μM TCEP; both purified
[7] = molecular target: Rpn13 construct devoid of the C-terminal pentapeptide, residues 260-402 (human) (UniProt Q16186); assay: ITC; SGTA_TPR at 1 mM injected into Rpn13 or DMSLD peptide at 50 μM in the cell; 25 °C, 10 mM potassium phosphate pH 6.0, 100 mM NaCl, 250 μM TCEP; one site assumed (n = 1); both purified

Molecule: K160E/R164E double mutant SGTA_TPR (residues 84-211) (from UniProt O43765 84-211) (domain or fragment)
binding [1]: no binding

Molecule: Rpn13 construct devoid of the C-terminal pentapeptide, residues 260-402 (from UniProt Q16186 260-402) (domain or fragment)
binding [6]: no binding | binding [4]: no binding (tested: 1:1 molar ratio)

Now from value to molecule, other results behind:

binding [2]: binds | binding [3]: no binding | binding [4]: binds
Molecule: Rpn13 C-terminal domain, residues 260-407 (from UniProt Q16186 260-407) (domain or fragment)
binding [5]: no binding (tested: 3-fold molar excess of Rpn13_(260-407))

binding [7]: no binding
B1: TPR domain of SGTA (small, glutamine-rich, tetratricopeptide repeat protein alpha), residues 84-211 (domain or fragment, human, UniProt O43765 84-211, looked up)
chain: SEEDSAEAERLKTEGNEQMKVENFEAAVHFYGKAIELNPANAVYFCNRAAAYSKLGNYAGAVQDCERAICIDPAYSKAYGRMGLALSSLNKHVEAVAYYKKALELDPDNETYKSNLKIAELKLREAPS
notes: human SGTA, central TPR domain, residues 84-211; 15N-labelled (M9 medium) where it was the observed species in NMR; unlabelled otherwise; not shown: thioredoxin A (TxA), N-terminal, cleaved; His6, N-terminal, cleaved
